Data taken from patent US9677112B2 (priority 2012, dated 2017).

Tests used:
[1] = Spontaneous hydrolysis of probes in buffer; type: physicochemical; conditions: 22° C.
TEM-1 Bla = TEM-1 Bla (Escherichia coli, UniProt P62593); conditions: for Km: read-out: TEM-1 Bla Km, PBS buffer (1x, pH = 7.4), 22° C.
From the text: The kinetic parameters of fluorescent probes BlaC and TEM-1 Bla, including catalytic constant kcat and Michaelis constant Km, are obtained from Linweaver-Burk plots (FIGS. 7A-7C) and summarized in Table 1.
All chemicals were purchased from commercial sources (e.g., Aldrich, Fluka, ANASPEC, and Novabiochem). 7-Amino-3-chloromethyl 3-cephem-4-carboxylic acid diphenylmethyl ester hydrochloride (ACLH) was obtained from Otsuka Chemical Co., Ltd. The purified TEM-1 β-lactamase was customarily prepared by the Biologics Process Development, Inc. (San Diego, Calif.). Analytical TLC was performed with 0.25 mm silica gel 60F plates with fluorescent indicator (254 nm). Plates were visualized by ultraviolet light. ^1H and ^13C NMR spectra were taken on Varian 300 MHz or 400 MHz magnetic resonance spectrometer. Data for ^1H NMR spectra are reported as chemical shifts reported as δ in units of parts per million (ppm) relative to chloroform-d (δ 7.26, s); multiplicities are reported as s (singlet), d (doublet), t (triplet), q (quartet), dd (doublet of doublets), m (multiplet), or br (broadened); coupling constants are reported as a J value in Hertz (Hz); the number of protons (n) for a given resonance is indicated nH, and based on the spectral integration values.
The following procedure was used for determining the hydrolytic kinetics of the probes by beta-lactamase. To a series of different concentrations of the probe (20, 40, 60, 80, 100, 120, 150 μM) in 1× phosphate-buffered saline (PBS, pH 7.4; 100 μL) in a 96-well plate (black and flat bottom) was added TEM-1 Bla or BlaC in PBS. The fluorescence intensity at 454 nm was immediately measured in a microplate reader (excitation wavelength: 400 nm) over a 20-minute period at 25° C. The values of the kinetic parameters (Km and kcat) were determined from the double-reciprocal plot of the hydrolysis rate versus substrate concentration (Lineweaver-Burk plot). To determine the spontaneous hydrolysis rate of the probes, the fluorescence intensity was monitored over 5 days without the addition of the enzyme. The rate was calculated from the plot of ln([S]0/([S]0−[P])) versus time (FIG. 8C).

[2] = tested on: COc1ccc(-c2c3ccc(=O)cc-3oc3cc(OCc4ccc(OCC5=C(C(=O)O)N6C(=O)[C@@H](NC(=O)Cc7ccccc7)[C@H]6SC5)cc4)ccc23)c(C)c1; experiment: purified protein, by the assay type; conditions: 22° C.
[3] = tested on: COc1ccc(-c2c3ccc(=O)cc-3oc3cc(OCc4ccc(OCC5=C(C(=O)O)N6C(=O)[C@](NC(=O)Cc7ccccc7)(OC)[C@H]6SC5)cc4)ccc23)c(C)c1; experiment: purified protein, by the assay type; conditions: 22° C.
[4] = tested on: O=C(Cc1ccccc1)N[C@@H]1C(=O)N2C(C(=O)O)=C(COc3ccc4ccc(=O)oc4c3)C[S@+]([O-])[C@H]12; experiment: purified protein, by the assay type; conditions: other: PBS buffer (1x, pH = 7.4), 22° C., pH 7.4
[5] = other: MES buffer (0.1M, pH 6.6), pH 6.6
[6] = other: PBS buffer (1x, pH = 7.4), pH 7.4

Sequence of TEM-1 Bla (P62593 24-286 limits assumed): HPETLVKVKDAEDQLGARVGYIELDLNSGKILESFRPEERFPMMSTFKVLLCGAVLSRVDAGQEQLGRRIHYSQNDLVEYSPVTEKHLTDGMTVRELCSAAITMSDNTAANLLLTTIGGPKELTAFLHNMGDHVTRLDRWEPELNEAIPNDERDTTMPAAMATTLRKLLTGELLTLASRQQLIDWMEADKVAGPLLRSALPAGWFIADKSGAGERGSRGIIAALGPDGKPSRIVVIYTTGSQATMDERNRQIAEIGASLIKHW

Compound	Spontaneous Hydrolysis Rate ([1]; PBS buffer (1x, pH = 7.4))	TEM-1 Bla kcat (TEM-1 Bla) [s⁻¹]	Km (TEM-1 Bla) [µM]	other results
O=C(Cc1ccccc1)N[C@@H]1C(=O)N2C(C(=O)O)=C(COc3ccc4ccc(=O)oc4c3)CS[C@H]12 [CDC-1, (6R,7R)-8-Oxo-3-((2-oxo-2H-chromen-7-yloxy)methyl)-7-(2-phenylacetamido)-5-thia-1-azabicyclo[4.2.0]oct-2-ene-2-carboxylic acid]	2e-07 s⁻¹	48	135	
O=C(Cc1ccccc1)N[C@@H]1C(=O)N2C(C(=O)O)=C(COc3ccc4ccc(=O)oc4c3)C[S@+]([O-])[C@H]12 [CDC-2, (5S,6R,7R)-8-Oxo-3-(((2-oxo-2H-chromen-7-yl)oxy)methyl)-7-(2-phenylacetamido)-5-thia-1-azabicyclo[4.2.0]oct-2-ene-2-carboxylic acid 5-oxide]	1e-07 s⁻¹			
CCN1CCN(C(=O)N[C@@H](C(=O)N[C@@H]2C(=O)N3C(C(=O)O)=C(COc4ccc5ccc(=O)oc5c4)CS[C@H]23)c2ccccc2)C(=O)C1=O [CDC-3, (6R,7R)-7-((R)-2-(4-Ethyl-2,3-dioxopiperazine-1-carboxamido)-2-phenylacetamido)-8-oxo-3-((2-oxo-2H-chromen-7-yloxy)methyl)-5-thia-1-azabicyclo[4.2.0]oct-2-ene-2-carboxylic acid]	2e-07 s⁻¹	77	59	
CC(=O)N[C@@H]1C(=O)N2C(C(=O)O)=C(COc3ccc4ccc(=O)oc4c3)CS[C@H]12 [CDC-4, (6R,7R)-7-Acetamido-8-oxo-3-(((2-oxo-2H-chromen-7-yl)oxy)methyl)-5-thia-1-azabicyclo[4.2.0]oct-2-ene-2-carboxylic acid]	2e-07 s⁻¹	10	133	
CO[C@@]1(NC(C)=O)C(=O)N2C(C(=O)O)=C(COc3ccc4ccc(=O)oc4c3)CS[C@@H]21 [CDC-5, (6R,7S)-7-Acetamido-7-methoxy-8-oxo-3-(((2-oxo-2H-chromen-7-yl)oxy)methyl)-5-thia-1-azabicyclo[4.2.0]oct-2-ene-2-carboxylic acid]	3e-07 s⁻¹			
CCO[C@@]1(NC(=O)Cc2ccccc2)C(=O)N2C(C(=O)O)=C(COc3ccc4ccc(=O)oc4c3)CS[C@@H]21 [CDC-OEt, (6R,7S)-7-Ethoxy-8-oxo-3-((2-oxo-2H-chromen-7-yloxy)methyl)-7-(2-phenylacetamido)-5-thia-1-azabicyclo[4.2.0]oct-2-ene-2-carboxylic acid]	2e-07 s⁻¹			
CO[C@@]1(NC(=O)Cc2ccccc2)C(=O)N2C(C(=O)O)=C(COc3ccc4ccc(=O)oc4c3)CS[C@@H]21 [CDC-OMe, (6R,7S)-7-Methoxy-8-oxo-3-((2-oxo-2H-chromen-7-yloxy)methyl)-7-(2-phenylacetamido)-5-thia-1-azabicyclo[4.2.0]oct-2-ene-2-carboxylic acid]	3.3e-07 s⁻¹ and 3e-07 s⁻¹	0.00076	50	
COc1ccc(-c2c3ccc(=O)cc-3oc3cc(OCc4ccc(OCC5=C(C(=O)O)N6C(=O)[C@@H](NC(=O)Cc7ccccc7)[C@H]6SC5)cc4)ccc23)c(C)c1 [CDG-1, (6R,7R)-3-((4-(((9-(4-Methoxy-2-methylphenyl)-3-oxo-3H-xanthen-6-yl)oxy)methyl)phenoxy)methyl)-8-oxo-7-(2-phenylacetamido)-5-thia-1-azabicyclo[4.2.0]oct-2-ene-2-carboxylic acid]	3e-07 s⁻¹			Spontaneous Hydrolysis Rate ([1]; MES buffer (0.1M, pH 6.6)): (6 × 10^−7)^c s^−1; TEM-1 Bla kcat (TEM-1 Bla; pH 6.6): (5.2) s^−1
COc1ccc(-c2c3ccc(=O)cc-3oc3cc(OCc4ccc(OCC5=C(C(=O)O)N6C(=O)[C@](NC(=O)Cc7ccccc7)(OC)[C@H]6SC5)cc4)ccc23)c(C)c1 [CDG-OMe, (6R,7S)-7-Methoxy-3-((4-(((9-(4-methoxy-2-methylphenyl)-3-oxo-3H-xanthen-6-yl)oxy)methyl)phenoxy)methyl)-8-oxo-7-(2-phenylacetamido)-5-thia-1-azabicyclo[4.2.0]oct-2-ene-2-carboxylic acid]	3e-07 s⁻¹			Spontaneous Hydrolysis Rate ([1]; MES buffer (0.1M, pH 6.6)): (2 × 10^−7)^c s^−1; TEM-1 Bla kcat (TEM-1 Bla; pH 6.6): (6.7 × 10^−4) s^−1
TEM-1 Bla (Escherichia coli)				Km [2, 5]: (1.9) μM; kcat/Km [2, 5]: 2.7 × 10^6 s^−1M^−1; Km [2, 6]: 1.0 µM; kcat [2, 6]: 8.7 s⁻¹; kcat/Km [2, 6]: 8.7 × 10^6 s^−1M^−1; Km [3, 5]: (40) μM; Km [3, 6]: 30 µM; kcat [3, 6]: 0.0011 s⁻¹; kcat/Km [3, 6]: 37 s^−1M^−1; Km [4]: 454 µM; kcat [4]: 7 s⁻¹; kcat/Km [4]: 1.5 × 10^4 s^−1M^−1

Values joined by “and” are separate entries in the source; they are usually repeats but may differ in a detail not shown here. Equal values may be shown once. Read-outs that look alike come from different tables or passages of the source.
